The text below walks through data of PMC10933316.

By UniProt entry, the sequences of proteins in these tests, tags left out.
UniProt Q6PDQ2: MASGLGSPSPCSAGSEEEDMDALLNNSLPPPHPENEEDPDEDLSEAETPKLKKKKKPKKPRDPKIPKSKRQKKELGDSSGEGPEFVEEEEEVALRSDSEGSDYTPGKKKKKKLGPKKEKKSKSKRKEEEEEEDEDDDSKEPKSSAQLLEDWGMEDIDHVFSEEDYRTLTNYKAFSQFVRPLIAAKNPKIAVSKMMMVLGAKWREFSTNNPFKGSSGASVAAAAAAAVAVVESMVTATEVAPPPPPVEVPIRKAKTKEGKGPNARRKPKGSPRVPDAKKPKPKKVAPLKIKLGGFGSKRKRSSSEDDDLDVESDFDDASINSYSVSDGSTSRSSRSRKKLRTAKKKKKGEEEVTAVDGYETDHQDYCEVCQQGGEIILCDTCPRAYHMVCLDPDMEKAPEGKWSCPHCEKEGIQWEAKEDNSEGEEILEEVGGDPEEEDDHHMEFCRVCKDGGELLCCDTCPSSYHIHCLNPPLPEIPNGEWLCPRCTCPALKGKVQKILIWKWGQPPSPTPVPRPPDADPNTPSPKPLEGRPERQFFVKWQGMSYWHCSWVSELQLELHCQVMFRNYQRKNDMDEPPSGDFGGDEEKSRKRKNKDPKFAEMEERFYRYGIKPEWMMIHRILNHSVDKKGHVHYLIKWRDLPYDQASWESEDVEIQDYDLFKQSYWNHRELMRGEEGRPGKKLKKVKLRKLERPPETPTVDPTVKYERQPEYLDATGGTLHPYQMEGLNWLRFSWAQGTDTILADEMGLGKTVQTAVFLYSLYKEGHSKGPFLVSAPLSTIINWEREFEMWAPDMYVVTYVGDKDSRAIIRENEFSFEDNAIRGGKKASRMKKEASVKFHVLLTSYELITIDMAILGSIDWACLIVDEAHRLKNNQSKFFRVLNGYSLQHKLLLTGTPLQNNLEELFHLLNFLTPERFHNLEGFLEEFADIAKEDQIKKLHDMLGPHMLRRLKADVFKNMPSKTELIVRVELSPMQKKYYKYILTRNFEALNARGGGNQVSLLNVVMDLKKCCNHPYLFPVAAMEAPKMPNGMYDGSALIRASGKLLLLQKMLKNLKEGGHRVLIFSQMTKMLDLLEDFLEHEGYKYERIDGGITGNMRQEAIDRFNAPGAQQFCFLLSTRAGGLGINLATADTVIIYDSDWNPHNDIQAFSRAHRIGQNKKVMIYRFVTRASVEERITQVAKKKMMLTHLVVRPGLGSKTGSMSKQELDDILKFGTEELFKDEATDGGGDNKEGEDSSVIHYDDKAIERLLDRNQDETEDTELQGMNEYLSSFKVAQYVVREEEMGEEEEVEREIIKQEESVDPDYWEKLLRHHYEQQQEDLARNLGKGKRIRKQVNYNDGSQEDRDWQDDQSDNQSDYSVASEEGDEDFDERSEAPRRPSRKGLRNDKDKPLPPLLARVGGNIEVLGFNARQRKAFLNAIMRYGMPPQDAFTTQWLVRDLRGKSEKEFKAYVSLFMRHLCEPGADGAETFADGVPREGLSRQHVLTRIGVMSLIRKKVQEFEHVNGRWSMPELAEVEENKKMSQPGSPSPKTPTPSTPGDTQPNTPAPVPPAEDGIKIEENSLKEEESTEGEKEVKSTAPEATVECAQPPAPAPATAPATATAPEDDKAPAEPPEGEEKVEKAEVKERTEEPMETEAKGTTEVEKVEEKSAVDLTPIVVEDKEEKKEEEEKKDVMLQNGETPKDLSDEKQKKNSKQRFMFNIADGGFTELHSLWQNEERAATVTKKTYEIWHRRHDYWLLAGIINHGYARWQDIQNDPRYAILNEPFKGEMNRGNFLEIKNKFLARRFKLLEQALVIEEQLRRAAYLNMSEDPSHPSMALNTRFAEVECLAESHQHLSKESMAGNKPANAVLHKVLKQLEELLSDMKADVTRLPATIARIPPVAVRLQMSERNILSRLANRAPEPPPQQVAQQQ
UniProt Q9D4H8: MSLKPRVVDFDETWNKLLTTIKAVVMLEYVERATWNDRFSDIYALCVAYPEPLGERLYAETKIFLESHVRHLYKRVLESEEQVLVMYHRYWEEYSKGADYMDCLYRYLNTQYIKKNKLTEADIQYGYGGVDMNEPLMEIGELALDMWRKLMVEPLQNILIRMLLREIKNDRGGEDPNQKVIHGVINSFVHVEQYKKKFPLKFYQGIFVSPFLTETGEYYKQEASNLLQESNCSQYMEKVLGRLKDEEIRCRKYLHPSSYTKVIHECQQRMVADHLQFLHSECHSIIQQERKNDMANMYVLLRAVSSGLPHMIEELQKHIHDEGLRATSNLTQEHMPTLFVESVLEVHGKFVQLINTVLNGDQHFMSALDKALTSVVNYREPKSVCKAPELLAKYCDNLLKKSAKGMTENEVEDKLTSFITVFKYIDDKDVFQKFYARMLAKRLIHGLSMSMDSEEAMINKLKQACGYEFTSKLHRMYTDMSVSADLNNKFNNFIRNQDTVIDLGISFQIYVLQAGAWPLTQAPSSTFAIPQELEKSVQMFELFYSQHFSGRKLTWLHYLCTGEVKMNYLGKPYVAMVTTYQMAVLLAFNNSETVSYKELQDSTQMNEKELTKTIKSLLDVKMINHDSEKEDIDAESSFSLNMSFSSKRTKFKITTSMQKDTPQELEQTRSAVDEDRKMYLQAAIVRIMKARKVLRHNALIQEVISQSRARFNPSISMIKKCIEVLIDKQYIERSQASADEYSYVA

Results are given in words; binding and its absence hold for the method and conditions named. In cells and extracts the contact can be indirect. Some results given as binding are weak or reduced against the parent protein; the word gives no strength.

The target in assay [1] is T1, H/F-PRAMEL7ΔN (ESC line) (mouse) (UniProt Q810Y8).
T1 sequence: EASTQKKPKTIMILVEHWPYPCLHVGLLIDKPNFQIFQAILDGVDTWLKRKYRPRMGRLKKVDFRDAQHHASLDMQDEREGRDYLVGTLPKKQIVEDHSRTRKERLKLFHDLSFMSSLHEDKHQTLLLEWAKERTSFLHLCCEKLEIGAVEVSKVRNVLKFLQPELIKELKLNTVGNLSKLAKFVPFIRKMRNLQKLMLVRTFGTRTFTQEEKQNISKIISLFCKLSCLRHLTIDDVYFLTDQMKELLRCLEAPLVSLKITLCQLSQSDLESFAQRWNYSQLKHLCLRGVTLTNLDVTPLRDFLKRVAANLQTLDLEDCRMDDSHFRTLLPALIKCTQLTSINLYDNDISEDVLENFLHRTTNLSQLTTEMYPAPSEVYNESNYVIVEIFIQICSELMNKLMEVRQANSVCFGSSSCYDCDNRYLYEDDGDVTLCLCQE
Briefly: co-IP; HA-IP from ESC + H/F-PRAMEL7WT and ESC + H/F-PRAMEL7ΔN lines; Western blot for PRAMEL7, CUL2 and neddylated CUL2. For orientation: Immunoblotting shows a protein as a band on a membrane.

The target in assay [2] is T2, H/F-PRAMEL7WT (ESC line) (mouse) (UniProt Q810Y8).
T2 sequence: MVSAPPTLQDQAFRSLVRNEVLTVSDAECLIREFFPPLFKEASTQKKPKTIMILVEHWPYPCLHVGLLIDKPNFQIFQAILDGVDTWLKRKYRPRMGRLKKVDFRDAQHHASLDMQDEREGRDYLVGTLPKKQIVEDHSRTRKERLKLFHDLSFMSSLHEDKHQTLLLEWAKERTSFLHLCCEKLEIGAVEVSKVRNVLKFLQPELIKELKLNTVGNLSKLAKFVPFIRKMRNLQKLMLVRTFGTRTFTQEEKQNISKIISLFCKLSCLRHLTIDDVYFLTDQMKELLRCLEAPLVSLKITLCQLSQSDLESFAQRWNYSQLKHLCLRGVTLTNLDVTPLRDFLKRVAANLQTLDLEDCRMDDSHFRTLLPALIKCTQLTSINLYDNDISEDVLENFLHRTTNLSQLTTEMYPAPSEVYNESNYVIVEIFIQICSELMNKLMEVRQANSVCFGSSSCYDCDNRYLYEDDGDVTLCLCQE
Described as above.

Assay [3] addresses CHD4 (mouse (endogenous in ESCs)) (UniProt Q6PDQ2). Put plainly: co-IP; CHD4-IP of chromatin of ESC + H/F-PRAMEL7; Western blot for CHD4, CUL2 and PRAMEL7.

Turning to “Cullin2 (CUL2), endogenous in mouse ESCs (from UniProt Q9D4H8 1-745)”, the binding entry in assay [1] was “no binding”; in assay [2], “binds”.

With “neddylated CUL2, endogenous in mouse ESCs (from UniProt Q9D4H8 1-745)”, the values for the binding result in assay [1] and in assay [2] were “no binding” and “binds”, respectively.

B1: H/F-PRAMEL7WT (ESC line) (protein, UniProt Q810Y8 1-479)
chain: T2 sequence
Consider B1, for which the binding entry in assay [3] is given as “binds”.
